Where “and” joins values, the source holds several entries; their conditions need not be identical. Equal values may be shown once. Out of some 360,000 compounds screened, about 2,600 (0.72%) were called active. Inconclusive means that the source gave no clear call. Such entries were picked first, then a sample of the others. The call rests on the fitted dose curve; in most records, active means well fitted inhibition curve with a large enough effect; inconclusive means small, poorly fitted or top-dose-only effect; inactive means no such curve, though single readings can be large or run the other way. Potencies beside an inconclusive call are fits to weak or partial responses and may not hold up.
Assay: Primary qHTS for Inhibitors of ATXN expression; further: nearly all actives have a fitted effect of over 55% in size
Conditions: HEK-293 ATXN2-luciferase reporter, luminescence, 24 h; activity change, negative = inhibition: at 57 µM (top of the series)
How it was run: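 qHTS (up to 57 uM final) was run with 24 h compound exposure of reporter cells at 37 °C. Each well was multiplexed: SteadyGlo luminescence measured ATXN2-luciferase expression after a fluorogenic Gly-Phe-AFC viability readout (25 uM final).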
On the % scale 0 is the no-effect control and ±100 the full control effect; potency means the concentration at half of the fitted maximal effect; tags describe the fitted curve by direction and shape.

Row | SMILES | Potency | activity change, negative = inhibition
1 | C(=N\Nc1ccc2nncn2n1)/c1ccccn1 | inconclusive: 39.8 µM [inhibitor, single point] | –
2 | Cc1cc(C)c(C2=Nn3c(C)nnc3SC2C)cc1C (stereo not given) | inconclusive: 20 µM [inhibitor, single point] | –
3 | CCc1ccc(OCC(=O)NC(NC(=S)Nc2ccc(Cl)cc2)C(Cl)(Cl)Cl)cc1 (stereo not given) | inconclusive: 22.4 µM [inhibitor, single point] | –
4 | O=C(O)COc1ccc(Br)cc1/C=N\Nc1ccccn1 | inactive | –
5 | CCN(CC)C(=O)CN(C#N)c1nc(Cl)nc(N(C)C)n1 | inconclusive: 31.6 µM [inhibitor, single point] | –
6 | O=c1c2cc(Br)ccc2nc(-c2cccc(Cl)c2)n1O | – | inconclusive: -74.4% [inhibitor]
7 | Cc1cccc(Cn2cccc2CNS(=O)(=O)c2ccc(Br)cc2)c1 | inconclusive: 39.8 µM [inhibitor, single point] | –
8 | CC(CN1c2ccccc2Sc2ccccc21)N(C)C (stereo not given) | inconclusive: 25.1 µM [inhibitor, partial curve] | –
9 | O=C(NCCOc1ccccc1Cl)c1cccc2c1C(=O)c1ccc(Cl)cc1S2(=O)=O | inconclusive: 39.8 µM [inhibitor, single point] | –
10 | CCn1c(=O)c2cc(C(=O)NCCCN(C)Cc3ccccc3)sc2c2ccccc21 | inconclusive: 28.2 µM [inhibitor, single point] | –
11 | O=C(O)CCn1cnc2onc(-c3ccccc3Cl)c2c1=O | inactive | –
12 | CCCOc1ccc(F)cc1-c1cc(C(=O)Nc2cc(OC)c(OC)c(OC)c2)[nH]n1 | inconclusive: 25.1 µM [inhibitor, single point] | –
13 | O=C(c1ccc(Cl)s1)N1CCN(c2nc3ccccc3s2)CC1 | inconclusive: 3.98 µM [inhibitor, partial curve, poor fit] | –
14 | CCN(CC)c1nc(=S)nc(NC(C)(C)C)[nH]1 | inconclusive: 35.5 µM [inhibitor, partial curve, poor fit] | –
15 | CCN(c1ccccc1)S(=O)(=O)c1ccc(C(=O)NC2CCN(Cc3ccccc3)CC2)cc1 | inconclusive: 0.891 µM [inhibitor, partial curve, poor fit] | –
16 | Oc1ccc2ccccc2c1C=NNc1ccccn1 | inconclusive: 3.77 µM [inhibitor, full curve] | –
17 | FC(F)(F)c1cc(-c2cccs2)n[nH]1 | inactive | –
18 | O=C(NNc1nc(-c2ccccc2)c2cc(Br)ccc2n1)c1ccc(S(=O)(=O)N2CCOCC2)cc1 | inactive | –
19 | Cc1ccc2nc(/C(C#N)=C\c3ccc([N+](=O)[O-])o3)[nH]c2c1 | active: 5.62 µM | –
20 | Cc1ccc(C)c(NC(=S)N/N=C/C(C)c2ccccc2)c1 (stereo not given) | inactive | –
21 | O=[N+]([O-])c1ccc(N/N=C/c2sc(N3CCOCC3)nc2-c2ccccc2)c(S(=O)(=O)Nc2ccc(Cl)cc2)c1 | inconclusive: 7.08 µM [inhibitor, full curve] | –
22 | CC(C)c1ccc(-c2nc3ccccc3s2)cc1 | inconclusive: 2.24 µM [inhibitor, partial curve, poor fit] | –
23 | CCCS(=O)(=O)Nc1ccc(F)c(C(=O)c2c[nH]c3ncc(Cl)cc23)c1F | inconclusive: 30.6 µM [inhibitor, single point] | –
24 | Cc1ccccc1[C@@]1(C)ON(c2ccccc2C(F)(F)F)C1=O | inconclusive: 25.1 µM [inhibitor, single point] | –

Row | SMILES | Potency | activity change, negative = inhibition
25 | COc1cc(SC)ccc1C(=O)Nc1nc2ccccc2[nH]1 | active: 0.316 µM | –
26 | COc1ccc(C2C3=C(CC(C)(C)CC3=O)Oc3ncn4nc(-c5ccccc5)nc4c32)cc1 (stereo not given) | inactive | –
27 | CC(=O)Nc1cccc(Oc2ccc3c(c2)C(=O)NC3=O)c1 | inactive | –
28 | CCc1ccc(NC(=O)Cn2c(=O)oc3cc(S(=O)(=O)NCc4ccccc4)ccc32)cc1 | inactive | –
29 | CCC(c1nnnn1CCc1ccccc1)N(Cc1ccco1)Cc1cc2c(C)ccc(C)c2[nH]c1=O (stereo not given) | inconclusive: 37.7 µM [inhibitor, single point] | –
30 | CCOC(=O)C1=C(CCc2ccccc2)NC(=O)NC1c1ccc2ccccc2c1 (stereo not given) | inconclusive: 17.8 µM [inhibitor, partial curve, poor fit] | –
31 | COc1ccc(CNc2nc(-c3cccnc3)nn2C(=O)CC(C)C)cc1 | inactive | –
32 | Fc1ccc(CSc2nc3ccccc3[nH]2)cc1 | inactive | –
33 | CNC(=O)CN1CCC(Oc2cc3c(Nc4cccc(Cl)c4F)ncnc3cc2OC)CC1 | inconclusive: 0.432 µM [inhibitor, full curve] | –
34 | Cc1ccc(S(=O)(=O)N2CCCCC2)cc1NC(=O)COC(=O)C1(C)CC1(Cl)Cl (stereo not given) | inconclusive: 28.2 µM [inhibitor, partial curve, poor fit] | –
35 | Cc1c(N2C(=O)/C(=C\c3ccc(N(C)C)cc3)N(C)C2=S)c(=O)n(-c2ccccc2)n1C | inactive | –
36 | COc1ccc(C=O)cc1COc1ccc2c(c1)OCO2 | inactive | –
37 | COc1cc(OC)c2c(-c3cccc(-c4ccoc4)c3)cc(=O)oc2c1 | inconclusive: 12.6 µM [inhibitor, partial curve, poor fit] | –
38 | Cc1ccc(Cl)cc1-c1cc(C(=O)NCc2cccc(Cl)c2)[nH]n1 | inconclusive: 39.8 µM [inhibitor, single point] | –
39 | COc1ccc(C(=O)COC(=O)CCS(=O)(=O)c2ccc(C)cc2)c(OC)c1 | inactive | –
40 | COC(=O)[C@H](Cc1ccccc1)NC(=O)N1CCN(Cc2ccccc2)CC1 | inconclusive: 22.4 µM [inhibitor, partial curve, poor fit] | –
41 | CC(C)=CCc1c(O)c(CC=C(C)C)c2c(c1O)C(=O)CC(c1ccc(O)cc1)O2 (stereo not given) | inconclusive: 37.7 µM [inhibitor, single point] | –
42 | CCC(CC)Nc1ccc(C(CC(N)=O)NC(=O)Cc2ccc(Br)cc2)cc1[N+](=O)[O-] (stereo not given) | inconclusive: 12.6 µM [inhibitor, partial curve, poor fit] | –
43 | CCN(Cc1cc(=O)oc2cc(C)ccc12)c1ccccc1 | inactive | –
44 | CCOc1ccc(Nc2nc3c(c(=O)[nH]2)CCC3)cc1 | inconclusive: 7.08 µM [inhibitor, single point] | –
45 | Cn1c(C(=O)NCCN2CCc3ccccc3C2)cc2c(=O)[nH]c3ccccc3c21 | inconclusive: 39.8 µM [inhibitor, single point] | –
46 | COc1ccc(O)c(/C=N/NC(=O)c2ccc(N3CCCC3=O)cc2)c1 | active: 25.1 µM | –
47 | COC(=O)CSc1nnc(COc2ccc([N+](=O)[O-])cc2)n1C | inactive | –
48 | COc1cccc(CNCCc2c[nH]c3ccccc23)c1OCc1ccccc1 | inconclusive: 3.36 µM [inhibitor, partial curve, poor fit] | –

Row | SMILES | Potency | activity change, negative = inhibition
49 | Cc1ccc(-c2nnc(Sc3nc4ccccc4o3)c3ccccc23)cc1 | inconclusive: 39.8 µM [inhibitor, single point] | –
50 | Cc1nnc(SCC(=O)NC2CCCCC2)n1C1CCCCC1 | inactive | –
51 | Cc1ccccc1C(=O)Nc1ccc2nc(Nc3cccc(C(F)(F)F)c3)cc(C)c2c1 | inconclusive: 31.6 µM [inhibitor, single point] | –
52 | FC(F)(F)c1cccc(N2CCN(Cc3nnc(-c4ccc5c(c4)OCO5)o3)CC2)c1 | inconclusive: 25.1 µM [inhibitor, partial curve, poor fit] | –
53 | Cc1ccc(OCCn2c(C3CC(=O)N(Cc4ccccc4)C3)nc3ccccc32)cc1 (stereo not given) | inconclusive: 37.7 µM [inhibitor, single point] | –
54 | O=C(O)CSc1ncnc2scc(-c3ccccc3)c12 | inactive | –
55 | Cc1sc(NC(=S)NC(=O)c2cccs2)nc1-c1ccc(C(C)C)cc1 | inconclusive: 39.8 µM [inhibitor, single point] | –
56 | COc1ccc2c(c1)CCCN2C(N)=O | inactive | –
57 | S=P(N1CC1)(N1CC1)N1CC1 | inconclusive: 15.8 µM [inhibitor, partial curve] and inconclusive: 27.3 µM [inhibitor, partial curve] and inconclusive: 39.8 µM [inhibitor, partial curve, poor fit] | –
58 | CCOC(=O)c1ccc(NC(=O)CSc2nccn2-c2ccc(OCC)cc2)cc1 | inactive | –
59 | O=C1CCN(S(=O)(=O)c2ccccc2)C2CCCCC12 (stereo not given) | inactive | –
60 | Cc1cccc(N2CCN(C(=O)Cn3cnc4sc(C)c(S(=O)(=O)N5CCN(c6ncccn6)CC5)c4c3=O)CC2C)c1 (stereo not given) | inactive | –
61 | COc1cc(N)c(Cl)cc1C(=O)NC1CCN(Cc2ccccc2)CC1 | inconclusive: 28.2 µM [inhibitor, partial curve] | –
62 | COc1ccc(Nc2nc(N3CCCC3)nc3ccccc23)c(OC)c1 | active: 10 µM | –
63 | O=C(NCc1cccnc1)/C(=C\c1ccc(-c2ccc(Cl)c(Cl)c2)o1)S(=O)(=O)c1ccccc1 | active: 12.6 µM | –
64 | CCOC(=O)CCNC(C(=O)OCC)c1ccccc1 (stereo not given) | inactive | –
65 | CCCCOC(=O)c1[nH]c2c(c1C)C(=O)CC(c1cc(OC)c(OC)c(OC)c1)C2 (stereo not given) | inconclusive: 7.94 µM [inhibitor, partial curve, poor fit] | –
66 | COc1ccc(-c2noc(CCCC(=O)NC3CCCC3)n2)cc1 | inconclusive: 8.91 µM [inhibitor, partial curve, poor fit] | –
67 | CCC(C(=O)c1ccc(O)cc1)c1ccccc1 (stereo not given) | inactive | –
68 | O=C(Nc1cccc(C(F)(F)F)c1)C1Cc2c(-c3ccccc3)ccnc2O1 (stereo not given) | inconclusive: 28.2 µM [inhibitor, partial curve, poor fit] | –
69 | Cc1ccc(C=Nc2ccccc2C(=O)Nc2ccccc2)cc1 | inactive | –
70 | Cc1nc2nc(-c3ccccc3)cn2nc1C | active: 15.8 µM | –
